Measurements published in the supplement of paper PMC10986608.
This is one part of the list. Most values come without repeats; read them as rough.

What follows are compounds tested on Candida albicans DPL-15 (assay: growth (OD600) after compound treatment (apparently relative to screen median) (relative growth (fraction; screen median 1.02)); DPL-15 is a caspofungin-resistant clinical isolate; higher = more fungal growth (less antifungal activity)). Conditions: 25 µM; RPMI 1640; 48 h; 30 °C.

| SMILES | growth |
| --- | --- |
| CC(=O)OC[C@H]1O[C@H](c2ccc(-c3ccccc3)cc2)C=C[C@H]1OC(C)=O | 0.924 |
| COc1ccc2c(c1)C1(Cc3occc(=O)c3OS(C)(=O)=O)CCCCC1=N2 (stereo unspecified) | 1.12 |
| COC(=O)C/C=C/[C@H](C)[C@@H](NC(=O)[C@H](Cc1ccccc1)NC(=O)OC(C)(C)C)c1ccccc1 | 1.08 |
| COC(=O)C1=C(C)N(Cc2ccccc2F)C(=S)NC1c1cccc(Cl)c1 (stereo unspecified) | 0.82 |
| CC(C)[C@H]1CC[C@H](C)C[C@@H]1OS(=O)(=O)NC(C)(C)C | 1.18 |
| COC(=O)C1=C(C)N(Cc2ccccc2)C(NCCc2c[nH]c3ccccc23)=N[C@H]1c1ccc(Br)cc1 | 0.903 |
| C=CCCc1n[nH]c2c1C(c1ccc(F)cc1)N(c1ccc(OC)cc1)C2=O (stereo unspecified) | 1.23 |
| CC(=O)C1=C(C)N(Cc2ccccc2)C(=S)NC1c1ccccc1Br (stereo unspecified) | 1.1 |
| C[C@H]1C[C@H]2CC(=O)N[C@@H](Cc3ccccc3)C(=O)N2[C@H]1c1ccccc1 | 1.09 |
| O[C@@H](Cc1ccccc1)[C@@H](/C=C/c1ccccc1)NCCc1ccccc1 | 1.02 |
| COc1ccc(-n2nc(C)c3c2C(=O)NC3c2ccccc2)cc1 (stereo unspecified) | 0.968 |
| O=C1CC2(CCCCC2)CNC(=O)c2cccc(c2)-c2cc(n[nH]2)COC[C@H](c2ccccc2)N1 | 0.909 |
| COc1ccc(N2C(=O)c3[nH]nc(CC(C)C)c3[C@H]2c2ccccc2Br)cn1 | 1.06 |
| CC(C)=CCc1ccc(O)c2oc3ccccc3c(=O)c12 | 0.726 |
| CO[C@@H]1[C@H](O)CC[C@]2(O)CN(CC3CC3)[C@@H](CC=C(C)C)[C@](C)(O)[C@@H]12 | 1.09 |
| COc1ccc([C@@]23Oc4cc(OC)c(Cl)c(OC)c4[C@]2(O)c2nc4n(c(=O)c2[C@H]3c2ccccc2)CCC4)cc1 | 1.08 |
| CC(=O)C1=C2C=CCCN2C(=O)NC1c1cc(F)ccc1F (stereo unspecified) | 1.18 |
| CO[C@@H]1[C@H](O)CC[C@]2(O)CN(c3nc(-c4ccccc4)cs3)[C@](C)([C@H](O)CC=C(C)C)[C@@H]12 | 0.935 |
| CO[C@@H]1[C@H](O)CC[C@]2(O)CN(c3ccc(C#N)cc3)[C@@H](CC=C(C)C)[C@](C)(O)[C@@H]12 | 0.909 |
| CC[C@]1(Cc2occc(=O)c2OS(C)(=O)=O)C(c2ccccc2)=Nc2ccccc21 | 1.11 |
| COC(=O)C/C=C/[C@H](C)[C@@H](NC(=O)[C@H](CC(C)C)NC(=O)OC(C)(C)C)c1ccccc1 | 1.12 |
| COc1cc([C@@H]2[C@@H](C(=O)Nc3ccccc3)[C@H](C(=O)Nc3ccccc3)[C@H]2c2ccc(O)c(OC)c2)ccc1O | 0.822 |
| CC(C)C1=C[C@@H]2[C@H]3C(C(C(C)C)=CC(=O)[C@@]3(C)O)C1C(=O)[C@@]2(C)O (stereo partly specified) | 1.03 |
| COc1ccc(N2C(=O)C3=C(C(c4ccccc4)=NCCN3)C2c2ccc(C)cc2)cc1 (stereo unspecified) | 0.908 |
| COC(=O)C1=C(C)N(C)C(=S)NC1c1ccc(OC)cc1 (stereo unspecified) | 1.13 |
| CO[C@@H]1[C@H](O)CC[C@]2(O)CN(c3cc(C)ccc3C)[C@@H](CC=C(C)C)[C@](C)(O)[C@@H]12 | 0.892 |

| SMILES | growth |
| --- | --- |
| CCNC1=NC(c2ccc(C(F)(F)F)cc2)C(C(=O)OC)=C(C)N1Cc1cccc(C(F)(F)F)c1 (stereo unspecified) | 0.745 |
| COc1cc2c(cc1OC)CN(CCc1ccc([N+](=O)[O-])cc1)CC2 | 0.927 |
| O=C(c1c(O)cc(O)cc1Nc1ccnn1C1CCCCC1)N1Cc2cccnc2C1 | 1.11 |
| COc1ccc(N2C(=O)c3[nH]nc(CC(C)C)c3[C@H]2c2cccc(C(F)(F)F)c2)cn1 | 0.87 |
| COC(=O)c1cc2c(c3c4cc(C)ccc4n(S(=O)(=O)c4ccc(OC)cc4)c13)C(=O)N(Cc1ccccc1)C2 | 1.15 |
| COc1ccc2c(=O)cc(-c3ccccc3)oc2c1OCC=C(C)C | 1.05 |
| COC(=O)C1NC(=O)C(Cc2ccccc2)N(C)C1=O (stereo unspecified) | 1.06 |
| Clc1cccnc1CCCc1ccccc1 | 1.11 |
| C=CCN1C(=O)C2=C(C(C(C)C)=NCCN2)C1c1ccc(Br)cc1 (stereo unspecified) | 1.07 |
| COc1ccc2c(=O)c3cccc(C)c3oc2c1OCC=C(C)C | 1.15 |
| CC(C)=CCc1cc(OCC(=O)NCC(=O)NCc2ccc(O)cc2)cc2oc3cccc(O)c3c(=O)c12 | 1.04 |
| COc1ccc2c(c1)CCN2CC1CCCN(CCc2ccccc2)C1 (stereo unspecified) | 0.757 |
| COC(=O)c1[nH]c2ccc(OC)cc2c1[C@]12CCN(C(=O)c3ccc(S(C)(=O)=O)cc3)[C@H]1Nc1ccccc12 | 0.966 |
| CCCCS(=O)(=O)N1CCCc2nc(CC)c(CC)cc21 | 0.927 |
| COC(=O)C1=C(C)NC(=O)N(C(C)=O)C1c1ccccc1 (stereo unspecified) | 1.06 |
| COc1ccc2c(c1)[C@@H](NS(=O)(=O)c1ccccc1)[C@H](C)[C@H]2c1ccccc1 | 1.08 |
| COc1cccc2c1c(=O)c(O)c(-c1ccc(Br)cc1)n2C | 0.485 |
| O=C(/C=C/c1ccc(Br)cc1)c1c(O)cc(F)cc1OCC(F)(F)F | 1.09 |
| C[C@@H]1/C=C/CC(=O)N[C@H](c2ccc3ccccc3c2)[C@H](C)/C=C/CC(=O)N[C@@H]1c1ccc2ccccc2c1 | 0.975 |
| COc1ccc(C[C@H]2COC(=O)[C@@H]2Cc2ccc(OC)c(OC)c2OC)c(OC)c1OC | 1.09 |
| CC(C)(C)NS(=O)(=O)OCC1CCC1 | 1.22 |
| C=CCN1C(=O)C2=C(C(C)=NCCN2)C1c1ccc(Br)cc1 (stereo unspecified) | 1.12 |
| Brc1cc2c3c(ccc4c3c1OCO4)OCO2 | 1.03 |
| COC(=O)[C@@]12Oc3ccc(-c4ccccc4SC)c(O)c3C(=O)C1=C(N)C[C@H](C)[C@H]2O | 1.06 |
| COc1ccc(C2NC(=O)N3CCC=CC3=C2C(C)=O)c(F)c1 (stereo unspecified) | 0.972 |
